# This is one part of the list.
# Columns and labels:
# Assay in all cases: glycan array binding signal (z-score within array); higher = stronger binding
# Conditions in all cases: glycan notation: IUPAC condensed, linker removed
# [1] = target: Gal(b1-3)GalNAc(b1-3)Gal
# Summary of the method: (§1)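 Columns mapping to the same glycan were averaged after glycan names were converted to IUPAC-condensed notation. The data come from 3228 arrays in the Consortium for Functional Glycomics database, limited to those with an available protein sequence. Binding is reported as a within-array Z-score averaged across arrays of one protein sequence and across linkers.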
# [2] = target: Gal(b1-3)GalNAc(b1-3)Gal(a1-4)Gal(b1-4)Glc
# Summary of the method: as §1
# [3] = target: Gal(b1-3)GalNAc(b1-3)Gal(b1-4)Glc
# Summary of the method: as §1
# [4] = target: Gal(b1-3)GalNAc(b1-3)Gal(b1-4)GlcNAc
# Summary of the method: as §1
# [5] = target: Gal(b1-3)GalNAc(b1-4)Gal(b1-4)Glc
# Summary of the method: as §1
# [6] = target: Gal(b1-3)GalNAc(b1-4)[Neu5Ac(a2-3)]Gal(b1-4)Glc
# Summary of the method: as §1
# [7] = target: Gal(b1-3)GlcNAc
# Summary of the method: as §1
# [8] = target: Gal(b1-3)GlcNAc(a1-3)Gal(b1-4)GlcNAc
# Summary of the method: as §1
# [9] = target: Gal(b1-3)GlcNAc(a1-6)Gal(b1-4)GlcNAc
# Summary of the method: as §1
# [10] = target: Gal(b1-3)GlcNAc(b1-2)Man
# Summary of the method: as §1
# [11] = target: Gal(b1-3)GlcNAc(b1-2)Man(a1-3)[Gal(b1-3)GlcNAc(b1-2)Man(a1-6)]Man(b1-4)GlcNAc(b1-4)GlcNAc
# Summary of the method: as §1
# [12] = target: Gal(b1-3)GlcNAc(b1-2)Man(a1-3)[Gal(b1-3)GlcNAc(b1-2)Man(a1-6)]Man(b1-4)GlcNAc(b1-4)[Fuc(a1-6)]GlcNAc
# Summary of the method: as §1
# [13] = target: Gal(b1-3)GlcNAc(b1-2)Man(a1-3)[GlcNAc(b1-4)][Gal(b1-3)GlcNAc(b1-2)Man(a1-6)]Man(b1-4)GlcNAc(b1-4)GlcNAc
# Summary of the method: as §1
# [14] = target: Gal(b1-3)GlcNAc(b1-2)[Gal(b1-3)GlcNAc(b1-6)]Man(a1-6)[Gal(b1-3)GlcNAc(b1-2)Man(a1-3)]Man(b1-4)GlcNAc(b1-4)GlcNAc
# Summary of the method: as §1
# [15] = target: Gal(b1-3)GlcNAc(b1-3)Gal(b1-3)GlcNAc
# Summary of the method: as §1
# [16] = target: Gal(b1-3)GlcNAc(b1-3)Gal(b1-4)Glc
# Summary of the method: as §1
# [17] = target: Gal(b1-3)GlcNAc(b1-3)Gal(b1-4)GlcNAc
# Summary of the method: as §1
# [18] = target: Gal(b1-3)GlcNAc(b1-3)Gal(b1-4)GlcNAc(b1-2)Man(a1-3)[Gal(b1-3)GlcNAc(b1-3)Gal(b1-4)GlcNAc(b1-2)Man(a1-6)]Man(b1-4)GlcNAc(b1-4)GlcNAc
# Summary of the method: as §1
# [19] = target: Gal(b1-3)GlcNAc(b1-3)Gal(b1-4)GlcNAc(b1-2)[Gal(b1-3)GlcNAc(b1-3)Gal(b1-4)GlcNAc(b1-6)]Man(a1-6)[Gal(b1-3)GlcNAc(b1-3)Gal(b1-4)GlcNAc(b1-2)Man(a1-3)]Man(b1-4)GlcNAc(b1-4)[Fuc(a1-6)]GlcNAc
# Summary of the method: as §1
# [20] = target: Gal(b1-3)GlcNAc(b1-3)Gal(b1-4)GlcNAc(b1-3)Gal(b1-4)GlcNAc(b1-2)[Gal(b1-3)GlcNAc(b1-3)Gal(b1-4)GlcNAc(b1-3)Gal(b1-4)GlcNAc(b1-6)]Man(a1-6)[Gal(b1-3)GlcNAc(b1-3)Gal(b1-4)GlcNAc(b1-3)Gal(b1-4)GlcNAc(b1-2)Man(a1-3)]Man(b1-4)GlcNAc(b1-4)[Fuc(a1-6)]GlcNAc
# Summary of the method: as §1
# [21] = target: Gal(b1-3)GlcNAc(b1-3)Gal(b1-4)GlcNAc(b1-6)[Gal(b1-3)GlcNAc(b1-3)]Gal(b1-4)Glc
# Summary of the method: as §1
# [22] = target: Gal(b1-3)GlcNAc(b1-3)Gal(b1-4)[Fuc(a1-3)]GlcNAc
# Summary of the method: as §1
# [23] = target: Gal(b1-3)GlcNAc(b1-3)Gal(b1-4)[Fuc(a1-3)]GlcNAc(b1-6)[Gal(b1-3)GlcNAc(b1-3)]Gal(b1-4)Glc
# Summary of the method: as §1
# [24] = target: Gal(b1-3)GlcNAc(b1-3)GalNAc
# Summary of the method: as §1
# [25] = target: Gal(b1-3)GlcNAc(b1-6)Gal(b1-4)GlcNAc
# Summary of the method: as §1
# [26] = target: Gal(b1-3)GlcNAc(b1-6)GalNAc
# Summary of the method: as §1
# [27] = target: Gal(b1-3)GlcNAc(b1-6)[Gal(b1-3)]GalNAc
# Summary of the method: as §1
# [28] = target: Gal(b1-3)GlcNAc6S
# Summary of the method: as §1
# [29] = target: Gal(b1-3)[Fuc(a1-4)]GlcNAc
# Summary of the method: as §1
# [30] = target: Gal(b1-3)[Fuc(a1-4)]GlcNAc(b1-2)Man
# Summary of the method: as §1
# [31] = target: Gal(b1-3)[Fuc(a1-4)]GlcNAc(b1-2)Man(a1-3)[Gal(b1-3)[Fuc(a1-4)]GlcNAc(b1-2)Man(a1-6)]Man(b1-4)GlcNAc(b1-4)[Fuc(a1-6)]GlcNAc
# Summary of the method: as §1
# [32] = target: Gal(b1-3)[Fuc(a1-4)]GlcNAc(b1-3)Gal(b1-3)[Fuc(a1-4)]GlcNAc
# Summary of the method: as §1
# [33] = target: Gal(b1-3)[Fuc(a1-4)]GlcNAc(b1-3)Gal(b1-4)GlcNAc
# Summary of the method: as §1
# [34] = target: Gal(b1-3)[Fuc(a1-4)]GlcNAc(b1-3)Gal(b1-4)[Fuc(a1-3)]GlcNAc
# Summary of the method: as §1
# [35] = target: Gal(b1-3)[Fuc(a1-4)]GlcNAc(b1-6)GalNAc
# Summary of the method: as §1
# [36] = target: Gal(b1-3)[GlcNAc(b1-6)]GalNAc
# Summary of the method: as §1
# [37] = target: Gal(b1-3)[GlcNAc(b1-6)]GlcNAc
# Summary of the method: as §1
# [38] = target: Gal(b1-3)[Neu5Ac(a2-6)]GalNAc
# Summary of the method: as §1
binder,measurement,setting,value
"MGL1 (Mus musculus), P49300 (protein) MIYENLQNSRIEEKTQEPGKAPSQSFLWRILSWTHLLLFSLGLSLLLLVVVSVIGSQNSQLRRDLGTLRATLDNTTSKIKAEFQSLDSRADSFEKGISSLKVDVEDHRQELQAGRDLSQKVTSLESTVEKREQALKTDLSDLTDHVQQLRKDLKALTCQLANLKNNGSEVACCPLHWTEHEGSCYWFSESEKSWPEADKYCRLENSHLVVVNSLEEQNFLQNRLANVVSWIGLTDQNGPWRWVDGTDFEKGFKNWAPLQPDNWFGHGLGGGEDCAHITTGGPWNDDVCQRTFRWICEMKLAKES",glycan array binding signal (z-score),[1],0.104
same,glycan array binding signal (z-score),[2],0.385
same,glycan array binding signal (z-score),[3],-0.076
same,glycan array binding signal (z-score),[4],-0.13
same,glycan array binding signal (z-score),[5],-0.087
same,glycan array binding signal (z-score),[6],-0.045
same,glycan array binding signal (z-score),[7],-0.251
same,glycan array binding signal (z-score),[8],-0.042
same,glycan array binding signal (z-score),[9],2.23
same,glycan array binding signal (z-score),[10],0.005
same,glycan array binding signal (z-score),[11],-0.284
same,glycan array binding signal (z-score),[12],-0.472
same,glycan array binding signal (z-score),[13],0.528
same,glycan array binding signal (z-score),[14],0.257
same,glycan array binding signal (z-score),[15],0.139
same,glycan array binding signal (z-score),[16],0.128
same,glycan array binding signal (z-score),[17],0.095
same,glycan array binding signal (z-score),[18],0.508
same,glycan array binding signal (z-score),[19],0.85
same,glycan array binding signal (z-score),[20],2.28
same,glycan array binding signal (z-score),[21],0.418
same,glycan array binding signal (z-score),[22],0.64
same,glycan array binding signal (z-score),[23],0.471
same,glycan array binding signal (z-score),[24],-0.195
same,glycan array binding signal (z-score),[25],-0.011
same,glycan array binding signal (z-score),[26],0.53
same,glycan array binding signal (z-score),[27],-0.643
same,glycan array binding signal (z-score),[28],0.828
same,glycan array binding signal (z-score),[29],0.7
same,glycan array binding signal (z-score),[30],-0.101
same,glycan array binding signal (z-score),[31],-0.121
same,glycan array binding signal (z-score),[32],-0.017
same,glycan array binding signal (z-score),[33],-0.08
same,glycan array binding signal (z-score),[34],1.01
same,glycan array binding signal (z-score),[35],-0.239
same,glycan array binding signal (z-score),[36],0.109
same,glycan array binding signal (z-score),[37],-0.138
same,glycan array binding signal (z-score),[38],-0.361

# From the supplement of paper PMC8728848
